B1: LINE1-mini (parent)
chain: GGCAGAGCUCAACACAGCGUGGCAAAGUGGCUGUGGCUAGACUGCC

The source gives no read counts; variants with many changes may rest on few reads.

Experimental findings from the RNAGym collection of RNA variant scans (doi:10.7554/elife.90254) are described below.

Variants of B1 are the subject of the data set. The data set can be described thus: self-cleavage, relative activity (ratio to wild type); higher = more cleavage; in vitro, sequencing; the parent is a self-cleaving ribozyme.
With GGAAGAGCUUUACACCGCGUGUCAAAGUGGCUGUGGCUAGACUGCC [C3A C10U A11U A16C G22U], the self-cleavage worked out at 0.03.

In the case of GGAAGAGGUCAACACAGCGUGGCAAAGUGACUGUGGCGAGACUGCC [C3A C8G G30A U38G], the self-cleavage was 0.02.

In the case of GGAAGAGCUCAAGACAGCCUGGCAAAGUGGCUGUGGCUAGACUGUC [C3A C13G G19C C45U], the self-cleavage was 0.43.

For the variant GGAAGAGCUAAACACAGCGGGGCAAAGCGGCUGUGGCUAGACUGCC [C3A C10A U20G U28C], the self-cleavage amounted to 0.03.

With GGAAGAGCUAAACACAGCAUGGCAAAGUGGCUGUGACUAGACUGCC [C3A C10A G19A G36A], the self-cleavage was found to be 0.07.

As to GGAAGAGUUCGACACAGCGUGGCAAAGUGGCUGUGGCUAGACUGCA [C3A C8U A11G C46A], the self-cleavage was determined as 0.04.

As for GGAAGAGCUCAAAACCGCGUGGCAAAGUGGCUGUGGCUAGACUGCU [C3A C13A A16C C46U], the self-cleavage is 0.

Consider GGAAGAGUUCAACACAGCGGGGCAAAGUGGCUGUGCUUAGACUGCC [C3A C8U U20G G36C C37U], for which the self-cleavage amounted to 0.05.

Take GGAAGAGGUCAACACAGCGUGGCAAAGUGGCUGUGGCUAGACAGCC [C3A C8G U43A]: the self-cleavage is 1.33.

For the variant GGAAGAGUUCAACACACCGUGGCAAAGUGGUUGUGGCUAGAUUCCC [C3A C8U G17C C31U C42U G44C], the self-cleavage is 0.07.

As for GGAAGAGCUCAAGACAGCUUGGCAAAGUGACUGUGGCUAGACUGCG [C3A C13G G19U G30A C46G], the self-cleavage amounted to 0.05.

In the case of GGAAGAGCUAAACACAGCGGGUCAAAGUGGCUGUGGCUAGACUGCC [C3A C10A U20G G22U], the self-cleavage is 0.07.

For GGAAGAGCUCAAAACAGCUUGGCAAAGUGGCGGUGGCUCGAAUGCC [C3A C13A G19U U32G A39C C42A], the self-cleavage was 0.14.

For GGAAGAGAUCAACACAGCGUGGCAAAGUGGCUUUGGCUAGACUGCC [C3A C8A G33U], the self-cleavage came to 0.32.

For the variant GGAAGAGCUAAACCCAGCGAGGCAAAGUGGCUGUGGCUAGACUUCC [C3A C10A A14C U20A G44U], the self-cleavage is 0.05.

For the variant GGAAGAGCUCAACAAAGCGUGGCAAAGUGGCUGUGACUAGACUGCC [C3A C15A G36A], the self-cleavage is 0.24.

Regarding GGAAGAGCUCAAAACAGCGUGGCAAAGUAGCUGUGGCUAGACUGCC [C3A C13A G29A], the self-cleavage was 1.33.

Turning to GGAAGAGCUAAACACAGCGUGGCUGAGUGGCUGUGGCUAGACUGCC [C3A C10A A24U A25G], the self-cleavage is 0.05.

Regarding GGAAGAGCUGAACACAGCGUGGCCAAGUGGCUGUUGCUAGACUGCC [C3A C10G A24C G35U], the self-cleavage came to 0.03.

Regarding GGAAGAGCUCAAAACAGCGUGGCUAAGUGGCUGUGGCUAGAGUGCC [C3A C13A A24U C42G], the self-cleavage was 0.06.

With GGAAGAGCUCAACAGAGCGUGGCAAAGUGGUUGUGGCUAGACUGCC [C3A C15G C31U], the self-cleavage was determined as 0.03.

In the case of GGAAGAGCUAACCACAGCGUGGCAAAGUGGCUGUGGAUAGACUGCC [C3A C10A A12C C37A], the self-cleavage was determined as 0.02.

Turning to GGAAGAGCUGAACACAGCCUGGCAAAGUAGCUGUGGCUAGACUGCC [C3A C10G G19C G29A], the self-cleavage turned out to be 0.04.

GGAAGAGCUAAACACAGCGUUGCAAAGUAGCGGUGGCUAGACUGCC [C3A C10A G21U G29A U32G]: the self-cleavage worked out at 0.05.

As to GGAAGAGCUAAACACAGCGUGGCAAAGUAGCUGUGGCUAGACUGCC [C3A C10A G29A], the self-cleavage came out at 0.03.

Consider GGAAGAGAUCAACACAGCGUGGCAAAGUGGCUGUGGCUAGACUGCU [C3A C8A C46U], for which the self-cleavage was found to be 0.84.

Take GGAAGAGGUCAACACAGCGUGACAAAGUGGCUGUGGCUAAACUGCC [C3A C8G G22A G40A]: the self-cleavage came out at 0.25.

Consider GGAAGAGGUCAACAGAGCGUGGCAAAGUGGCUGAGGCUAGACUGCC [C3A C8G C15G U34A], for which the self-cleavage stood at 0.13.

Take GGAAGAGGUUAUCAUAAGGUGGCACAGUGGCUGUGGCUAGUCUGCC [C3A C8G C10U A12U C15U G17A C18G A25C A41U]: the self-cleavage was determined as 0.03.

Consider GGAAGAGCUUAACACAGCGUGGCAAAGUGGCUGUGGCAGGACUGCC [C3A C10U U38A A39G], for which the self-cleavage stood at 0.15.

As for GGAAGAGCUCAAUACAGCGAGACAAAGUGACUGUGGCAUGAGUGCC [C3A C13U U20A G22A G30A U38A A39U C42G], the self-cleavage is 0.13.

For the variant GGAAGAGUUCAAUACAGCGUGGCAAAGUGGCUGUGGCUAGACUACC [C3A C8U C13U G44A], the self-cleavage worked out at 1.02.

With GGAAGAGCUAAACACAGCGUGGCAAAGUGGCUGUGGCUUGACAGCC [C3A C10A A39U U43A], the self-cleavage amounted to 0.04.

GGAAGAGCUCAACAAAGCGUCGCAAAGUGGCUGUGGCUAGAUUGCC [C3A C15A G21C C42U]: the self-cleavage is 0.22.

As to GGAAGAGCUAAACACUGCGUGGCAAAGUGGCUGUGGCUAGACUGCC [C3A C10A A16U], the self-cleavage was 0.07.

Take GGAAGAGUUCAACACACCGUGGCAAAGUGGCUGUGGCUGGACUGCC [C3A C8U G17C A39G]: the self-cleavage came to 0.03.

As to GGAAGAGCUGAACACAGCGUGGCAAAGUGGCUGUGGAUAGACUGUA [C3A C10G C37A C45U C46A], the self-cleavage stood at 0.

Consider GGAAGAGAUCAACACAGCGUGGCAAAUUGGCUGUGGCUAGACUGCC [C3A C8A G27U], for which the self-cleavage was 0.5.

As to GGAAGAGCUAAUCACAGCGUGACAAAGUGGCUCCGGCUACACUGCC [C3A C10A A12U G22A G33C U34C G40C], the self-cleavage was 0.02.

On to GGAAGAGGGCAACACAGCGUGGCAAAGUGGCUGUGGCUAGACUGCC [C3A C8G U9G], for which the self-cleavage came to 0.04.

Consider GGAAGAGUUCAACACAGCGUGUCAAAGUGGCUGUGGCUAGACUGGC [C3A C8U G22U C45G], for which the self-cleavage is 0.43.

In the case of GGAAGAGCUCAACAAAGUGUGGCAAAGUGCCUGUGGCUAGACUGCC [C3A C15A C18U G30C], the self-cleavage is 0.1.

As for GGAAGAGCUCAACAAAGAGUCGCAAAGUGGCUGUGGCUAGACUGCC [C3A C15A C18A G21C], the self-cleavage is 0.28.

For the variant GGAAGAGACCUACACAGCGUGGCAAAAUGGCUGUGGCUAGACUGCC [C3A C8A U9C A11U G27A], the self-cleavage amounted to 0.03.

Turning to GGAAGAGCUCAAGACAGCGUGGCAAAGUGGCUGUAGUUAGCCUGCG [C3A C13G G35A C37U A41C C46G], the self-cleavage amounted to 0.11.

Consider GGAAGAGCUGAACACAGCGUUGCAAAGUGGAUGUGUCUAGACUGCC [C3A C10G G21U C31A G36U], for which the self-cleavage was determined as 0.02.

Consider GGAAGAGCUCAAUACAGCGUGGUAAAGUGGCUGUGGCUAGACUGCC [C3A C13U C23U], for which the self-cleavage stood at 1.29.

Turning to GGAAGAGAUCAACACAGCGUGGCAAAGUGGCUGUAACUAGACUGCC [C3A C8A G35A G36A], the self-cleavage came out at 1.61.

With GGAAGAGCUAAACACAGCGUGGCAAAGUGGCUGUGGCUAGACUGUC [C3A C10A C45U], the self-cleavage was determined as 0.03.

As for GGAAGAGCUCAAGACAGCUUGGCAAAGUGGCUGUGGCUAGACUGCC [C3A C13G G19U], the self-cleavage was 0.21.

For the variant GGAAGAGCUCAACAAAGCGUGGCAAAGUGGCUGUGUCUGGACUGCC [C3A C15A G36U A39G], the self-cleavage came out at 0.39.

Consider GGAAGAGCUGAACACAGCGUUGCAAAGUGGCUGUGGCUAGACUGCC [C3A C10G G21U], for which the self-cleavage came to 0.08.

For the variant GGAAGAGUUCAACACAGCGUGGCAAAGUGGCUGUGGCUAGAAUGCC [C3A C8U C42A], the self-cleavage amounted to 0.23.

Consider GGAAGAGCUCAAUACAGGGUGGCAAAGUGGCUGUGGCUAGACUGCC [C3A C13U C18G], for which the self-cleavage was 0.13.

In the case of GGAAGAGCUCAAAACUGCGUGGCAAAGUGGCUGUGGCUAGACUGCC [C3A C13A A16U], the self-cleavage was determined as 0.04.

For the variant GGAAGAGUUCAACACAGAGUGGCAAAGUGGCUGUGGCUAGACUGCC [C3A C8U C18A], the self-cleavage amounted to 0.11.
